# Experimental data as given in the supplement of paper PMC8728848.
# The other results are listed elsewhere or left out.
# Tests used:
# Experiment in all cases: glycan array binding signal (z-score within array); higher = stronger binding
# Conditions in all cases: glycan notation: IUPAC condensed, linker removed
# [1] = molecular target: Neu5Ac(a2-6)Gal(b1-4)GlcNAc(b1-6)GalNAc
# Procedure, shortened: (§1)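 Glycan array data were curated from 3228 arrays in the Consortium for Functional Glycomics database and kept only where the protein sequence was available. Glycan names were converted to IUPAC-condensed notation, and columns mapping to the same glycan were averaged. The binding signal is a within-array Z-score, averaged across arrays of the same protein sequence at different concentrations or buffers and across linkers. Negative Z-scores can be read as non-binding.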
# [2] = molecular target: Neu5Ac(a2-6)Gal(b1-4)GlcNAc(b1-6)[Gal(b1-3)GlcNAc(b1-3)]Gal(b1-4)Glc
# Procedure, shortened: as §1
# [3] = molecular target: Neu5Ac(a2-6)Gal(b1-4)GlcNAc(b1-6)[Gal(b1-3)]GalNAc
# Procedure, shortened: as §1
# [4] = molecular target: Neu5Ac(a2-6)Gal(b1-4)GlcNAc6S
# Procedure, shortened: as §1
# Neu5Ac(a2-6)GalNAc = molecular target: Neu5Ac(a2-6)GalNAc
# Procedure, shortened: as §1
# [5] = molecular target: Neu5Ac(a2-6)GalNAc(b1-4)GlcNAc
# Procedure, shortened: as §1
# [6] = molecular target: Neu5Ac(a2-6)GalNAc(b1-4)GlcNAc6S
# Procedure, shortened: as §1
# [7] = molecular target: Neu5Ac(a2-6)GlcNAc(b1-4)GlcNAc
# Procedure, shortened: as §1
# [8] = molecular target: Neu5Ac(a2-6)GlcNAc(b1-4)GlcNAc(b1-4)GlcNAc
# Procedure, shortened: as §1
# Neu5Ac(a2-8)Neu5Ac = molecular target: Neu5Ac(a2-8)Neu5Ac
# Procedure, shortened: as §1
# [9] = molecular target: Neu5Ac(a2-8)Neu5Ac(a2-3)Gal(b1-3)GalNAc(b1-4)[Neu5Ac(a2-3)]Gal(b1-4)Glc
# Procedure, shortened: as §1
# [10] = molecular target: Neu5Ac(a2-8)Neu5Ac(a2-3)Gal(b1-3)GalNAc(b1-4)[Neu5Ac(a2-8)Neu5Ac(a2-3)]Gal(b1-4)Glc
# Procedure, shortened: as §1
# [11] = molecular target: Neu5Ac(a2-8)Neu5Ac(a2-3)Gal(b1-4)Glc
# Procedure, shortened: as §1
# [12] = molecular target: Neu5Ac(a2-8)Neu5Ac(a2-3)Gal(b1-4)GlcNAc
# Procedure, shortened: as §1
# [13] = molecular target: Neu5Ac(a2-8)Neu5Ac(a2-3)[Gal(b1-3)GalNAc(b1-4)]Gal(b1-4)Glc
# Procedure, shortened: as §1
# [14] = molecular target: Neu5Ac(a2-8)Neu5Ac(a2-3)[GalNAc(b1-4)]Gal(b1-4)Glc
# Procedure, shortened: as §1
# [15] = molecular target: Neu5Ac(a2-8)Neu5Ac(a2-8)Neu5Ac
# Procedure, shortened: as §1
# [16] = molecular target: Neu5Ac(a2-8)Neu5Ac(a2-8)Neu5Ac(a2-3)Gal(b1-4)Glc
# Procedure, shortened: as §1
# [17] = molecular target: Neu5Ac(a2-8)Neu5Ac(a2-8)Neu5Ac(a2-3)[Gal(b1-3)GalNAc(b1-4)]Gal(b1-4)Glc
# Procedure, shortened: as §1
# [18] = molecular target: Neu5Ac(a2-8)Neu5Ac(a2-8)Neu5Ac(a2-3)[GalNAc(b1-4)]Gal(b1-4)Glc
# Procedure, shortened: as §1
# [19] = molecular target: Neu5Ac(a2-8)Neu5Ac(a2-8)Neu5Ac(a2-8)Neu5Ac(a2-3)[GalNAc(b1-4)]Gal(b1-4)Glc
# Procedure, shortened: as §1
# [20] = molecular target: Neu5Ac(a2-8)Neu5Gc(a2-3)Gal(b1-4)GlcNAc
# Procedure, shortened: as §1
# [21] = molecular target: Neu5Ac(b2-6)Gal(b1-4)GlcNAc
# Procedure, shortened: as §1
# Neu5Ac(b2-6)GalNAc = molecular target: Neu5Ac(b2-6)GalNAc
# Procedure, shortened: as §1
# [22] = molecular target: Neu5Ac9Ac(a2-3)Gal(b1-4)GlcNAc
# Procedure, shortened: as §1
# [23] = molecular target: Neu5Ac9Ac(a2-6)Gal(b1-4)GlcNAc
# Procedure, shortened: as §1
# [24] = molecular target: Neu5Gc(a2-3)Gal(b1-3)GlcNAc
# Procedure, shortened: as §1
# [25] = molecular target: Neu5Gc(a2-3)Gal(b1-3)[Fuc(a1-4)]GlcNAc
# Procedure, shortened: as §1
# Neu5Gc(a2-3)Gal(b1-4)Glc = molecular target: Neu5Gc(a2-3)Gal(b1-4)Glc
# Procedure, shortened: as §1
# [26] = molecular target: Neu5Gc(a2-3)Gal(b1-4)GlcNAc
# Procedure, shortened: as §1
# [27] = molecular target: Neu5Gc(a2-3)Gal(b1-4)GlcNAc(b1-3)Gal(b1-4)GlcNAc(b1-2)Man(a1-3)[Neu5Gc(a2-3)Gal(b1-4)GlcNAc(b1-3)Gal(b1-4)GlcNAc(b1-2)Man(a1-6)]Man(b1-4)GlcNAc(b1-4)GlcNAc
# Procedure, shortened: as §1
# [28] = molecular target: Neu5Gc(a2-3)Gal(b1-4)[Fuc(a1-3)]GlcNAc
# Procedure, shortened: as §1
# [29] = molecular target: Neu5Gc(a2-6)Gal(b1-4)GlcNAc
# Procedure, shortened: as §1
# Neu5Gc(a2-6)GalNAc = molecular target: Neu5Gc(a2-6)GalNAc
# Procedure, shortened: as §1
# [30] = molecular target: Neu5Gc(a2-8)Neu5Ac(a2-3)Gal(b1-4)GlcNAc
# Procedure, shortened: as §1
# [31] = molecular target: Neu5Gc(a2-8)Neu5Gc(a2-3)Gal(b1-4)GlcNAc
# Procedure, shortened: as §1
# [32] = molecular target: Neu5Gc(a2-8)Neu5Gc(a2-3)Gal(b1-4)GlcNAc(b1-3)Gal(b1-4)GlcNAc
# Procedure, shortened: as §1
# [33] = molecular target: Neu5Gc(a2-8)Neu5Gc(a2-6)Gal(b1-4)GlcNAc
# Procedure, shortened: as §1
# [34] = molecular target: Neu5Gc(b2-6)Gal(b1-4)GlcNAc
# Procedure, shortened: as §1
binder,measurement,setting,value
Threefoil (Haloarcula marismortui) (protein) GSSHHHHHHHHHHSSGLVPRGSHMGDGYYKLVARHSGKALDVENASTSDGANVIQYSYSGGDNQQWRLVDLGDGYYKLVARHSGKALDVENASTSDGANVIQYSYSGGDNQQWRLVDLGDGYYKLVARHSGKALDVENASTSDGANVIQYSYSGGDNQQWRLVDL,glycan array binding signal (z-score),[1],-0.125
same,glycan array binding signal (z-score),[2],-0.212
same,glycan array binding signal (z-score),[3],-0.06
same,glycan array binding signal (z-score),[4],-0.238
same,glycan array binding signal (z-score),Neu5Ac(a2-6)GalNAc,-0.27
same,glycan array binding signal (z-score),[5],-0.193
same,glycan array binding signal (z-score),[6],-0.319
same,glycan array binding signal (z-score),[7],-0.215
same,glycan array binding signal (z-score),[8],-0.141
same,glycan array binding signal (z-score),Neu5Ac(a2-8)Neu5Ac,-0.306
same,glycan array binding signal (z-score),[9],-0.269
same,glycan array binding signal (z-score),[10],-0.063
same,glycan array binding signal (z-score),[11],-0.236
same,glycan array binding signal (z-score),[12],-0.178
same,glycan array binding signal (z-score),[13],-0.146
same,glycan array binding signal (z-score),[14],-0.322
same,glycan array binding signal (z-score),[15],-0.234
same,glycan array binding signal (z-score),[16],-0.261
same,glycan array binding signal (z-score),[17],-0.31
same,glycan array binding signal (z-score),[18],-0.347
same,glycan array binding signal (z-score),[19],-0.069
same,glycan array binding signal (z-score),[20],-0.072
same,glycan array binding signal (z-score),[21],-0.309
same,glycan array binding signal (z-score),Neu5Ac(b2-6)GalNAc,-0.129
same,glycan array binding signal (z-score),[22],-0.252
same,glycan array binding signal (z-score),[23],-0.303
same,glycan array binding signal (z-score),[24],-0.296
same,glycan array binding signal (z-score),[25],-0.1
same,glycan array binding signal (z-score),Neu5Gc(a2-3)Gal(b1-4)Glc,-0.142
same,glycan array binding signal (z-score),[26],-0.297
same,glycan array binding signal (z-score),[27],-0.282
same,glycan array binding signal (z-score),[28],-0.207
same,glycan array binding signal (z-score),[29],-0.253
same,glycan array binding signal (z-score),Neu5Gc(a2-6)GalNAc,-0.171
same,glycan array binding signal (z-score),[30],-0.219
same,glycan array binding signal (z-score),[31],-0.325
same,glycan array binding signal (z-score),[32],-0.184
same,glycan array binding signal (z-score),[33],-0.415
same,glycan array binding signal (z-score),[34],-0.237
